According to the supplement of paper PMC6089552:
Screen size: about 3,200 compounds; about 300 (9.4%) showed activity. The entries are a selection whose mix differs from that of the whole data set.

Test system: A673/TR/shEF
Assay: cell viability (LOESS-normalised, relative to median of negative controls) (log2 ratio); higher = more viable cells (less compound effect), active = hit call of the paper (over 3 MAD below the median)
Conditions: treatment time: 72 h
Summary of the method: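 For three days, A673/TR/shEF Ewing sarcoma cells in 384-well plates (1,500 per well) were treated with library compounds at two or more concentrations or with DMSO controls, after doxycycline had been added or withheld 24 h beforehand to induce EWS-FLI1 shRNA knockdown. Viability was read by CellTiter-Glo luminescence on an Envision reader. The data were LOESS-corrected per plate, divided by the median of negative controls and log2-transformed.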

[1] = 0.25 µM, library screen: screen1, EWS-FLI1 expression: high (no doxycycline)
[2] = 0.25 µM, library screen: screen1, EWS-FLI1 expression: low (doxycycline-induced shRNA knockdown)
[3] = 2.5 µM, library screen: screen1, EWS-FLI1 expression: high (no doxycycline)
[4] = 2.5 µM, library screen: screen1, EWS-FLI1 expression: low (doxycycline-induced shRNA knockdown)
[5] = 0.103 µM, library screen: screen3, EWS-FLI1 expression: high (no doxycycline)
[6] = 0.103 µM, library screen: screen3, EWS-FLI1 expression: low (doxycycline-induced shRNA knockdown)
[7] = 0.308 µM, library screen: screen3, EWS-FLI1 expression: high (no doxycycline)
[8] = 0.308 µM, library screen: screen3, EWS-FLI1 expression: low (doxycycline-induced shRNA knockdown)
[9] = 0.926 µM, library screen: screen3, EWS-FLI1 expression: high (no doxycycline)
[10] = 0.926 µM, library screen: screen3, EWS-FLI1 expression: low (doxycycline-induced shRNA knockdown)
[11] = 2.8 µM, library screen: screen3, EWS-FLI1 expression: high (no doxycycline)
[12] = 2.8 µM, library screen: screen3, EWS-FLI1 expression: low (doxycycline-induced shRNA knockdown)
[13] = 8.3 µM, library screen: screen3, EWS-FLI1 expression: high (no doxycycline)
[14] = 8.3 µM, library screen: screen3, EWS-FLI1 expression: low (doxycycline-induced shRNA knockdown)
[15] = 25 µM, library screen: screen3, EWS-FLI1 expression: high (no doxycycline)
[16] = 25 µM, library screen: screen3, EWS-FLI1 expression: low (doxycycline-induced shRNA knockdown)
[17] = 0.25 µM, library screen: screen2, EWS-FLI1 expression: high (no doxycycline)
[18] = 0.25 µM, library screen: screen2, EWS-FLI1 expression: low (doxycycline-induced shRNA knockdown)
[19] = 2.5 µM, library screen: screen2, EWS-FLI1 expression: high (no doxycycline)
[20] = 2.5 µM, library screen: screen2, EWS-FLI1 expression: low (doxycycline-induced shRNA knockdown)

Measured: cell viability (log2)

CC(C)(C)CC(C)(C)c1ccc(OCCOCC[N+](C)(C)Cc2ccccc2)cc1
inactive: [1] 0.176 | [2] 0.133 | [3] 0.0883 | [4] 0.0827

C=CC[N+]1([C@H]2C[C@H]3[C@@H]4CC[C@H]5C[C@H](O)[C@@H](N6CCOCC6)C[C@]5(C)[C@H]4CC[C@]3(C)[C@H]2OC(C)=O)CCCC1
inactive: [5] 0.0408 | [6] -0.0481 | [7] 0.0335 | [8] -0.00312 | [9] -0.0495 | [10] 0.0576 | [11] 0.0125 | [12] 0.0267 | [13] 0.00475 | [14] 0.0403 | [15] -0.0274 | [16] 0.0195

CC(C)(C)NC(=O)[C@H]1CC[C@H]2[C@@H]3CC[C@H]4NC(=O)C=C[C@]4(C)[C@H]3CC[C@]12C
inactive: [5] -0.0752 | [6] 0.0317 | [7] 0.0461 | [8] 0.107 | [9] 0.0597 | [10] 0.034 | [11] 0.146 | [12] 0.0984 | [13] 0.112 | [14] 0.0282 | [15] 0.142 | [16] 0.00216

C=CC1=C(C)/C(=C/c2[nH]c(Cc3[nH]c(/C=C4\NC(=O)C(C)=C4C=C)c(C)c3CCC(=O)O)c(CCC(=O)O)c2C)NC1=O
inactive: [1] 0.0132 | [2] 0.0277 | [3] 0.0983 | [4] 0.128

COc1cc(OC)cc(C(CNc2ncnc3c2ncn3C2O[C@H](CO)[C@@H](O)[C@H]2O)c2ccccc2C)c1 (stereo not given in full)
inactive: [17] 0.151 | [18] 0.0311 | [19] 0.147 | [20] 0.121

Nc1nc(N)c2nc(-c3ccccc3)c(N)nc2n1
inactive: [1] 0.0758 | [2] 0.0877 | [17] 0.138 | [18] 0.0552 | [3] 0.17 | [4] 0.199 | [19] 0.152 | [20] 0.0662

C=C1CC[C@H](O)C/C1=C/C=C1\CCC[C@]2(C)[C@@H]([C@H](C)/C=C/[C@H](C)C(C)C)CC[C@@H]12
inactive: [1] 0.121 | [2] 0.0629 | [3] 0.203 | [4] -0.0371

O=C(O)c1cc(O)ccc1O
inactive: [1] 0.00691 | [2] 0.0897 | [3] 0.0219 | [4] 0.0883

CC(C)C(=O)c1c(C(C)C)nn2ccccc12
inactive: [17] 0.148 | [18] 0.057 | [19] 0.134 | [20] 0.0577

Nc1ncnc2c1ncn2[C@@H]1O[C@@H]2COP(=O)(O)O[C@H]2[C@H]1O
inactive: [17] 0.0121 | [18] 0.115 | [19] 0.106 | [20] 0.0477
